Several values for one entry are separate records, joined by “and”; a condition that tells them apart may be missing. Identical values can stand only once.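 The compound was tested at five concentrations on cells cultured in 96-well plates, with a 48-hour exposure period. GI50: concentration for 50% inhibition of growth. TGI denotes the concentration required for complete inhibition of growth.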 Numbered stars: 1 amine (or outer) side, 2 acyl side, 3 side chain; on linkers, the order of the positions; unused ones are H or OH. Bridge positions count the residues as written; N and C are the ends. Peptide text beside a SMILES is read from it. I, II: the chains in the order shown. X16 = CCCCCCCCCCCCCCC(=O)NC(CCCCN[*:2])C(=O)CN1CCCC1C(=O)[*:1]
System: NCI-H322M lung
Test: DTP human tumour cell line panel, 48 h

| SMILES | GI50 | TGI [µM] |
| --- | --- | --- |
| CC(=O)NC1CCCN(O)C(=O)/C=C(/C)CCOC(=O)C(NC(C)=O)CCCN(O)C(=O)/C=C(/C)CCOC(=O)C(NC(C)=O)CCCN(O)C(=O)/C=C(/C)CCOC1=O.[Fe] (configuration not stated) | > 100 µM | > 100 |
| Nc1nc2c(c(=O)[nH]1)N=C(COP(=O)(O)OP(=O)(O)O)CN2 |  | > 100 |
| C=C(C)C1Cc2c(cc(OC)c3c(=O)c4ccccc4n(C)c23)O1 (configuration not stated) |  | > 100 |
| O=C(Nc1ccc(Cl)cc1Cl)c1cc2nc3ccccc3c(=O)n2c2ccccc12 |  | > 10 |
| Nc1nccc2c1ncn2C1C=C(CO)C(O)C1O (configuration not stated) | 548 µM | > 1000 |
| Cc1ccc(SC2C(C)(C)N(C(C)C)P2(=O)N(C(C)C)C(C)C)cc1 (configuration not stated) |  | > 100 |
| COc1cccc2c1C(=O)c1c(O)c3c(c(O)c1C2=O)C[C@@](O)(C(C)=O)C[C@@H]3OC1CC(N(C)C)C(O)C(C)O1 (some centres not stated) | 0.0278 µM and < 0.0112 µM |  |
| Cc1ccc(C2NC(=S)N3C(c4ccc(C)cc4)NC(=S)N23)cc1 (configuration not stated) | 11.3 µM | 24.9 |
| COC(=O)NN/C=C(\C=Nc1ccccc1)[N+](=O)[O-] |  | > 100 |
| S=C1NCCN1C(=S)NC1CCCCC1 |  | > 100 |
| CC(=O)[C@H]1[C@@H](OCc2ccccc2)O[N+]([O-])=C(C)[C@@H]1c1ccccc1 |  | > 100 |
| CC12OC3(C(O)C1O)C(C(=O)O[C@H]3CO[Si](C)(C)C(C)(C)C)C2S(=O)(=O)c1ccccc1 (some centres not stated) |  | > 100 |
| Oc1ccc(NCc2cc(O)ccc2O)cc1 |  | 30.7 |
| O=C1/C(=C\c2ccc([N+](=O)[O-])cc2)CS(=O)(=O)C/C1=C/c1ccc([N+](=O)[O-])cc1 | 0.806 µM | 10.1 |
| CC(C)CNC(=O)c1c(NC(=O)c2ccccc2)sc2[nH]c(=O)n(-c3ccccc3)c(=O)c12 |  | > 100 |
| O=c1[nH]cc(CO)c(=O)[nH]1 | > 100 µM | > 100 |
| Clc1ccc(/C=C/c2nc(-c3ccc(Cl)cc3)cn3c2nc2ccccc23)cc1 |  | > 100 |
| CC[C@@]1(O)C(=O)OCc2c1cc1n(c2=O)Cc2cc3c(Cl)c4c(cc3nc2-1)OCO4 | 0.0143 µM and 0.0843 µM | > 100 |
| CC(=O)Nc1c(I)c(C(=O)O)c(I)c(N(C)C(C)=O)c1I | > 100 µM | > 100 |
| Cc1cc(CN(Cc2ccccc2)Cc2nc3ccccc3[nH]2)c(O)c(CN(Cc2nc3ccccc3[nH]2)Cc2nc3ccccc3[nH]2)c1 |  | > 100 |
| CC1C2CC(CC2O)C1(C)C (configuration not stated) |  | > 100 |
| CC(C)(C)C(=O)CC(=O)C(F)(F)C(F)(F)C(F)(F)F.CC(C)(C)C(=O)CC(=O)C(F)(F)C(F)(F)C(F)(F)F.CC(C)(C)C(=O)CC(=O)C(F)(F)C(F)(F)C(F)(F)F.[Er] | > 100 µM | > 100 |
| Cc1ccc(-c2c3c(N)nc(-c4ccncc4)nc3nc3c2c(C)nn3-c2ccccc2)cc1 | > 37.5 µM | > 37.5 |
| N#Cc1c(N)nc2c(N=Nc3ccccc3)c(N)nn2c1Nc1ccccc1 |  | 22.2 |

| SMILES | GI50 | TGI [µM] |
| --- | --- | --- |
| CCOP(=O)(CCN1CCN(CCCCCOc2cc3c(cc2OC)C(=O)N2CCC[C@H]2C=N3)CC1)OCC | 22.1 µM | 56.2 |
| Cc1cc(NS(=O)(=O)c2ccc(NC(=O)COc3ccc(-c4cc5ccccc5[nH]4)cc3)cc2)no1 | 2.67 µM | 7.67 |
| O=CN1CCN(C(=O)c2ccc(Cl)cc2)C1=S |  | 29.3 |
| O=CNNC(=O)CSc1nc2ccc(I)cc2c(=O)n1Cc1ccccc1 |  | > 100 |
| CC1=C(S(=O)c2ccc(C)cc2)CCC2(CCCCO2)O1 (configuration not stated) |  | > 100 |
| COc1ccc(/C=N/NS(=O)(=O)c2ccc(/C=C3\NC(=O)N(C)C3=O)cc2)cc1 |  | > 100 |
| COC[C@@H]1Cc2cc(OC)c3c(c2[C@H](c2ccc(OC)c(OC)c2)[C@H]1COC)OCO3 |  | > 100 |
| COC(=O)CSc1n[nH]c(-c2ccccc2)n1 |  | > 100 |
| CC1(C)CC(=O)C(CC2C(=O)c3ccccc3C2=O)C(=O)C1C(=O)C(=O)Nc1cccc2ccc(O)cc12 (configuration not stated) |  | > 100 |
| CC(C)[Si](Oc1cc2c3c(ccc2c(O)c1[C@@H](C)CO[Si](C)(C)C(C)(C)C)C(C)(C)CCC3)(C(C)C)C(C)C |  | > 100 |
| C[C@]12CC[C@H]3[C@@H](CC=C4C[C@@H](O)CC[C@@]43C)[C@@H]1C[C@H](N1CCOCC1)[C@@H]2O |  | > 100 |
| Cc1cc(N2CCN(C)CC2)nc(N(CCNc2ccnc3cc(Cl)ccc23)Cc2ccco2)n1 | 2.8 µM | 11.2 |
| O=NN(CCCl)C(=O)Nc1ccc(Cl)c(Cl)c1 |  | > 100 |
| Cc1ccc(S(=O)(=O)Nc2cccc(C)c2C)cc1 |  | > 100 |
| c1csc(-c2ccc(-c3ccsc3)s2)c1 |  | > 100 |
| Cc1ccc(S(=O)(=O)C(C#N)c2nc3ccccc3nc2N2CCOCC2)cc1 (configuration not stated) |  | 55.2 |
| O=C(CCCCCNC1=CC(=O)c2ccccc2C1=O)NCCC[Te]c1ccccc1 | 0.481 µM | 3.56 |
| COc1ccc(C2c3cc4c(c(OC)c3CC3OCC(=O)C32)OCO4)cc1OC (configuration not stated) | < 0.01 µM | > 100 |
| CCCCCCCCCCCCCCC(=O)NC(CCCCNC(=O)C1CCCN1C(=O)C(CCCCN)NC(=O)C(CCCCN)NC(=O)C(CCCCN)NC(=O)C(CCCNC(=N)N)NC(=O)C(CCCCN)NC(=O)C(N)C(C)C)C(=O)CN1CCCC1C(=O)NCC(=O)NC(Cc1ccccc1)C(=O)N1CCCC1C(=O)NC(CO)C(=O)NC(Cc1ccc(O)cc1)C(=O)NC(CCCCN)C(=O)NC(CC(C)C)C(=O)NC(CCCNC(=N)N)C(=O)N1CCCC1C(=O)NCC(N)=O (configuration not stated) (I: GFPSYKLRPG-NH2 / II: H-VKRKKKP; linker I:N-II:C via X16; configuration not given here) | 17.8 µM | 48.3 |
| [O-]/N=N\c1on[n+](CCc2ccccc2)c1Cc1c(/N=N/[O-])on[n+]1CCc1ccccc1 |  | > 100 |
| O=C1C=Cc2c1csc2Br |  | > 100 |
| N#CC12CC=C(c3ccccc3)N=C1NC(c1ccccc1)=CC2 (configuration not stated) |  | > 100 |
| Cc1ccc2nc3sc(=O)sc3nc2c1 |  | 28.3 |
| NC(Cn1ccc(=O)c(O)c1)C(=O)O (configuration not stated) |  | > 100 |

| SMILES | GI50 | TGI [µM] |
| --- | --- | --- |
| COC(=O)C(=O)c1cc2ccccc2n1S(=O)(=O)c1ccccc1 |  | > 100 |
| COc1cc2c(cc1OCc1ccccc1)N=C[C@@H]1C[C@@H](F)CN1C2=O | 2.04 µM | 4.6 |
| CCOC(=O)c1ncn2c1[nH]c(=O)c1ccccc12 |  | > 100 |
| COc1cc(CCC(=O)O)c2cc3ccccc3cc2c1O |  | > 100 |
| Nc1nc(Cl)cc(NCC2(CO)CC(c3ccccc3)C2)n1 (configuration not stated) |  | > 100 |
| COc1ccc(/C=c2\sc3nnc(CCC(=O)Nc4cccc(C(F)(F)F)c4)n3c2=O)cc1 |  | > 100 |
| O=C1CCCC(=O)N1n1c(Cc2ccc(Cl)cc2)n[nH]c1=O |  | > 100 |
| CC(C)(C)C1CCC(CI)(N=[N+]=[N-])CC1 (configuration not stated) |  | > 100 |
| COc1ccc(/C=C/c2ccnc3ccccc23)cc1 |  | 27.3 |
| CN(C)CCCNC(=O)c1cccc2nc3ccccc3nc12 |  | 49.7 |
| NC(=O)c1ccccc1NC(=O)C(=O)Nc1n[nH]c(N)n1 |  | > 100 |
| Cc1ccc(S(=O)(=O)Nn2c(C)cc3ccc(S(=O)(=O)Nc4ccccc4[N+](=O)[O-])cc3c2=O)cc1 |  | > 100 |
| N=C1/C(=C/c2ccccc2)C(=O)N=C2SC=NN12 |  | > 100 |
| COc1ccc2[nH]c3c(C)c4ccnc(NCCCN(C)CCCN)c4c(C)c3c2c1 |  | 0.974 |
| Cc1cc(O)c2c(c1)C(=O)C=C(Br)C2=O |  | > 54.1 |
| O=C(Nc1sccc1S(=O)(=O)c1ccc(Cl)cc1)c1ccc(Cl)cc1Cl |  | > 100 |
| C=C(CS(=O)(=O)c1ccccc1)C(=O)OCC |  | 30.7 |
| O=C(NCCSSCCNC(=O)/C(Cc1ccc(O)c(Br)c1)=N/O)/C(Cc1ccc(O)c(Br)c1)=N/O |  | > 28.1 |
| CC1(Br)S(=O)(=O)OCCOS1(=O)=O |  | > 100 |
| CC(C)(C)OC(=O)N1CCCC1C(=O)NCCNc1ccc(NCCNC(=O)C2CCCN2C(=O)OC(C)(C)C)c2c1C(=O)c1ccccc1C2=O (configuration not stated) |  | 33 |
| CCc1cccc(C(C)C)c1NC1=C([n+]2ccc(C)cc2)C(=O)c2ccccc2C1=O |  | 13.6 |
| Cc1cc(O)c2cc3c(O)c(O)ccc3cc2c1 |  | > 100 |
| CCCCCCCCn1ccc2cc(NC(=O)Cn3cc(CN4CCC(C)CC4)nn3)ccc21 | 1.63 µM | 3.05 |
| Nc1ncnc2c1ccn2CC=C(CO)CO |  | > 100 |

| SMILES | GI50 | TGI [µM] |
| --- | --- | --- |
| Cc1ccc([S+](c2ccccc2)c2cc(C)ccc2C)cc1 (configuration not stated) |  | 34.6 |
| CCCCCCCCCCCCNC(=O)[C@H]1CSC(c2cc(Br)cs2)N1 (some centres not stated) | 5.43 µM | 11.4 |
| COc1ccc(-c2nnc(Nc3nc(O)c(C4=c5cc(OC(F)(F)F)ccc5=NC4=O)s3)o2)cc1 | 11.1 µM | 40.9 |
| CCOC(=O)c1c(SC)nc(-c2ccc(Cl)cc2)sc1=N |  | > 100 |
| CC(C)(C)C1CCP(=O)(c2ccccc2)CC1 (configuration not stated) |  | > 100 |
| Nc1nc(NNc2ccccc2F)cc(=O)[nH]1 |  | > 100 |
| CC(C)CC(NC=O)C(=O)NC(Cc1ccccc1)NC(=O)CNC(=O)C(C)NC(=O)OC(C)(C)C (configuration not stated) |  | > 100 |
| COc1ccccc1NC(=O)CC(=O)n1nc(-c2ccccc2)c(N=Nc2ccccc2[N+](=O)[O-])c1-c1ccccc1 |  | > 100 |
| Cc1ccn2c(-c3csc(Nc4cccc(O)c4)n3)c(C)nc2c1 | 0.526 µM | 20.9 |
| COC(=N)c1ncn(Cc2ccccc2)c1N |  | > 100 |
| Cc1ccc(NC(C(=O)c2ccccc2)c2ccccc2)cc1 (configuration not stated) | 3.31 µM | 50.3 |
| O=C(/C=C/c1cc(F)ccc1F)OCCc1ccccc1 |  | > 100 |
| O=C(NC1CCNCC1)c1[nH]ncc1NC(=O)c1c(Cl)cccc1Cl | 0.498 µM and 0.343 µM | > 29.3 |
| CC[C@@]1(OC(=O)C(N)CCC(=O)O)C(=O)OCc2c1cc1n(c2=O)Cc2cc3ccccc3nc2-1 (some centres not stated) |  | 6.56 |
| CC(=O)c1c2c(cc3c1CC1(C3)Cc3ccc4c(c3C1=O)CCC4)CCC2 (configuration not stated) |  | > 100 |
| Cc1cc(C(=O)N2CCN(C)CC2)c2c(=O)n(-c3ccccc3)c(=O)n(CC(O)CN3CCN(c4ncccn4)CC3)c2n1 (configuration not stated) | > 100 µM | > 100 |
| Cc1cc(Br)c2nsnc2c1[N+](=O)[O-] | 2.91 µM | 10.4 |
| O=NNc1ccc(Sc2ccc3ccccc3c2)cn1 |  | > 100 |
| COc1cccc(C(C#N)NC23CC4CC(CC(C4)C2)C3)c1 (configuration not stated) |  | > 100 |
| O=C(O)c1cccc(S(=O)(=O)NN2C(=O)CSC2c2ccccc2Cl)c1 (configuration not stated) |  | > 100 |
| CCNC(=S)Nc1c(C#N)c2n(c1C(=O)OCC)CCCCC2 |  | > 100 |
| OC1=CN=C(C2CC2)Oc2ccccc21 |  | > 100 |
| Nc1cccc2c1CN(C1CCC(=O)NC1=O)C2=O (configuration not stated) | > 100 µM | > 100 |
| CCN1CCN(CC(=O)Nc2nc3ccc(NCc4ccc(C)cc4)cc3s2)CC1 | 5.71 µM | 12.1 |

From PubChem BioAssay (NCI)
